Assay results as given in a collection of fitness landscapes (doi:10.1016/j.celrep.2020.107928).
Over roughly 81,000 sequences, “one-hybrid fitness for binding NBS DNA” has its median near -0.1; the highest 2% begin near 0.36. Some of the results follow.

B1: Caulobacter ParB omega fusion; a variant is named by its letters at X, in order, B8GW30 (parent)
chain: MESVVVGEPGMSEGRRGLGRGLSALLGEVDAAPAQAPGEQLGGSREAPIEILQRNPDQPRRTFREEDLEDLSNSIREKGVLQPILVRPSPDTAGEYQIVAGERAWRAAQRAGLKTVPIMVRELDDLAVLEIGIIENVQRADLNVLEEALSYKVLMEKFERTQENIAQTIGKSXSHVANXMRLLXLPDEVQSYLVSGELTAXHARAIAAAADPVALAKQIIEGGLSVRETEALARKAPNLSAGKSKGGRPPRVKDTDTQALESDLSSVLGLDVSIDHRGSTGTLTITYATLEQLDDLCNRLTRGI

Variants of: B1
Assay: one-hybrid fitness for binding NBS DNA (the Noc-binding site; scaled: cognate 1, non-cognate 0); higher = stronger binding
Conditions: with NBS DNA site
Summary of the method: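 On M9-minus-histidine containing 0.1 mM IPTG and 5 mM 3-AT, E. coli USO cells with a HIS3 reporter, site 19 bp from the promoter, grew 48 hours at 37°C to select Caulobacter ParB libraries randomised at four specificity codons. Plasmids from before and after were Illumina-sequenced, with three replicate libraries pooled and variants under 10 reads left out. Fitness is the log change in variant-to-wild-type read ratio, rescaled against cognate and non-cognate.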

| Variant | one-hybrid fitness for binding NBS DNA |
| --- | --- |
| ATQR | ≤ 0.2 |
| FKSG | ≤ 0.2 |
| AGKT | ≤ 0.2 |
| GGCL | ≤ 0.2 |
| AWHL | ≤ 0.2 |
| STPD | ≤ 0.2 |
| SLHS | ≤ 0.2 |
| LYDR | ≤ 0.2 |
| WHYR | ≤ 0.2 |
| RLRY | 0.291 |
| KSHM | ≤ 0.2 |
| TLMG | ≤ 0.2 |
| TMQN | ≤ 0.2 |
| HVKR | ≤ 0.2 |
| TCLR | ≤ 0.2 |
| RRWG | 0.216 |
| SENS | ≤ 0.2 |
| GITS | ≤ 0.2 |
| CTSG | ≤ 0.2 |
| WMCG | ≤ 0.2 |
| QQHC | ≤ 0.2 |

| Variant | one-hybrid fitness for binding NBS DNA |
| --- | --- |
| WIST | ≤ 0.2 |
| QNRF | ≤ 0.2 |
| PKSD | ≤ 0.2 |
| CQQC | ≤ 0.2 |
| CARG | ≤ 0.2 |
| RHVA | ≤ 0.2 |
| QEYM | ≤ 0.2 |
| RDER | ≤ 0.2 |
| TMFV | ≤ 0.2 |
| TTVN | ≤ 0.2 |
| PNSW | ≤ 0.2 |
| VHAF | ≤ 0.2 |
| DMGS | ≤ 0.2 |
| MKES | ≤ 0.2 |
| DNYC | ≤ 0.2 |
| SRAF | ≤ 0.2 |
| LITL | ≤ 0.2 |
| TVIS | ≤ 0.2 |
| RIRP | ≤ 0.2 |
| IVLI | ≤ 0.2 |
| NNVN | ≤ 0.2 |

| Variant | one-hybrid fitness for binding NBS DNA |
| --- | --- |
| PKKM | ≤ 0.2 |
| VLIP | ≤ 0.2 |
| RCWM | ≤ 0.2 |
| GQSK | ≤ 0.2 |
| EFNL | ≤ 0.2 |
| MPPV | ≤ 0.2 |
| FCQL | ≤ 0.2 |
| VCVC | ≤ 0.2 |
| GDAD | ≤ 0.2 |
| FHST | ≤ 0.2 |
| EWHR | ≤ 0.2 |
| GYRG | ≤ 0.2 |
| GEFG | ≤ 0.2 |
| FMNM | ≤ 0.2 |
| RPRQ | ≤ 0.2 |
| YPWR | ≤ 0.2 |
| SVEE | ≤ 0.2 |
| QGSK | ≤ 0.2 |
| PQKP | ≤ 0.2 |
| EKTL | ≤ 0.2 |
| QWAS | ≤ 0.2 |

| Variant | one-hybrid fitness for binding NBS DNA |
| --- | --- |
| RGER | ≤ 0.2 |
| YHIR | ≤ 0.2 |
| RFRP | ≤ 0.2 |
| AILW | ≤ 0.2 |
| CQWC | ≤ 0.2 |
| PTWG | ≤ 0.2 |
| KWGC | ≤ 0.2 |
| AMRH | ≤ 0.2 |
| DTMT | ≤ 0.2 |
| NFQR | ≤ 0.2 |
| RSIL | ≤ 0.2 |
| PYKL | ≤ 0.2 |
| HVCS | ≤ 0.2 |
| QISK | ≤ 0.2 |
| QWRK | ≤ 0.2 |
| IDAG | ≤ 0.2 |
| NEFC | ≤ 0.2 |
| GSPR | ≤ 0.2 |
| KPTV | ≤ 0.2 |
| PAQW | ≤ 0.2 |
| NGMI | ≤ 0.2 |
